According to publication PMC4336329 (PLoS ONE, 2015):
The campaign covered roughly 310,000 compounds. About 14,000 (4.5%) showed an effect of 50% or more. Effects have a minus sign here. The list shows a part of the results. Where a SMILES comes first, the peptide text is derived from it. The star is where a group is joined. Boc = CC(C)(C)OC(=O)*; Bn = c1ccc(C*)cc1

molecular target: human ether-à-go-go-related gene (hERG) potassium channel (human, UniProt Q12809); assay: primary screen, population patch clamp on CHO cells stably expressing hERG
Sequence (Q12809 whole entry, looked up): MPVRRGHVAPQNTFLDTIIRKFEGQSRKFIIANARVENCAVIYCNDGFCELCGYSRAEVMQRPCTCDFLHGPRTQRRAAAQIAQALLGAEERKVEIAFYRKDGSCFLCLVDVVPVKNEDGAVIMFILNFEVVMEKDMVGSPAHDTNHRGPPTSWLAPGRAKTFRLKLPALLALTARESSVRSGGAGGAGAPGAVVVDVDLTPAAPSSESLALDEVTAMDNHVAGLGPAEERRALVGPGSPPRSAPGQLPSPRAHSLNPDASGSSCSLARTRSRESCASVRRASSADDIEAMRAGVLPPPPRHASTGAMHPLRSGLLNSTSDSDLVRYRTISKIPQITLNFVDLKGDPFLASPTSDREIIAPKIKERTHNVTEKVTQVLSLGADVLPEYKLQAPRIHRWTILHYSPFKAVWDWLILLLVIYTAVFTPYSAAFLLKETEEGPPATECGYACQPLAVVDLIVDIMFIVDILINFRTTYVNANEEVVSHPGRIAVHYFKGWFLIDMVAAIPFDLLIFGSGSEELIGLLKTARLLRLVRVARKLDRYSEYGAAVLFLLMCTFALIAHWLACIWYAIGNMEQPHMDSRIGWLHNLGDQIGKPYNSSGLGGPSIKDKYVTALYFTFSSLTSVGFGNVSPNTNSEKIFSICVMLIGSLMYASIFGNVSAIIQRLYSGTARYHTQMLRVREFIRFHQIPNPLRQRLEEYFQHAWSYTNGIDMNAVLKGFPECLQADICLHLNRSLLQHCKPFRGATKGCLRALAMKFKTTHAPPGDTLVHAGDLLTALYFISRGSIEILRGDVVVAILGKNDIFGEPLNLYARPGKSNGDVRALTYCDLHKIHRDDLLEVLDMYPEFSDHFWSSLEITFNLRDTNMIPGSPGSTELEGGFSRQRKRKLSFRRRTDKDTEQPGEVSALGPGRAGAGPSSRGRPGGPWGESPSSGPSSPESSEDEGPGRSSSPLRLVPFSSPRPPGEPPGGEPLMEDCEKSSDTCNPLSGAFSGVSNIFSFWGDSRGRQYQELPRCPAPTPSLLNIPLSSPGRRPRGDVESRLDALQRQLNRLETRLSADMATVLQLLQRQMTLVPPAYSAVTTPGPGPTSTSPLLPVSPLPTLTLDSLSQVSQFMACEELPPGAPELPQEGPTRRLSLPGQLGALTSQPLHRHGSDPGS
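Also: peak tail current of the secondary pulse compared with the same well before compound.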

| SMILES | hERG current change (%, negative = inhibition) at 10uM |
| --- | --- |
| COc1ccccc1C(=O)Nc1ccc(S(=O)(=O)Nc2cnc3ccccc3n2)cc1 | -2.74% |
| CCc1ccccc1Nc1nc(N)nc(COC(=O)c2c(C)noc2C)n1 | -4.82% |
| COC(=O)C1C(=O)C=C(Nc2ccc(F)cc2F)CC1c1ccccc1 (stereo not drawn) | -16.9% |
| Cn1cccc1-c1nc2ccc(NC(=O)c3ccc([N+](=O)[O-])cc3)cc2[nH]1 | -10.5% |
| O=c1ccc(OCCOc2ccccc2)nn1-c1ccccc1 | -13.8% |
| Cc1ccc(S(=O)(=O)Cc2ccc(C(=O)NCCCN3CCCC3=O)o2)cc1 | 8.72% |
| CCOC(=O)c1c(S(=O)(=O)NCC2CCN(Cc3cccc(F)c3)CC2)c(C)n(C)c1C | -22.7% |
| Cc1cccc(CNC(=O)C(C)n2nc(C)c3c(C)n(-c4ccccc4)nc3c2=O)c1 (stereo not drawn) | -18.3% |
| Cc1ccc(N(CC(=O)NCc2ccc(F)cc2)S(=O)(=O)c2c(C)n[nH]c2C)cc1 | -22% |
| c1ccc2c(Nc3nnc(-c4ccncc4)s3)cccc2c1 | -14.6% |
| CC1Cc2ccccc2N1C(=O)c1nn(C)cc1Br (stereo not drawn) | 11.1% |
| O=C(CN1CCN(c2ccccc2O)CC1)NC(=O)NC1CCCC1 | -0.609% |
| Cc1ccc(-c2c(C(=O)NNC(=S)NCC3CCCO3)csc2C)cc1 (stereo not drawn) | 32.2% |
| N/C(Cc1ccc([N+](=O)[O-])cc1)=N\OC(=O)CC1CCCCC1 | -68.5% |
| CC(C)CC1NC(=O)c2ccccc2-n2c1nc1ccc(F)cc1c2=O (stereo not drawn) | 14.7% |
| CC(C)(C)N(Cc1ccccc1)C(=O)CN1C(=O)NC2(CCCCCC2)C1=O | -5.48% |
| CC1CCc2sc(C(=O)N3CCN(c4ncccn4)CC3)cc2C1 (stereo not drawn) | -11.5% |
| COc1cccc(NC(=O)C/C(C)=N/NC(=O)C2CCCCC2)c1 | 8.65% |
| CC(=O)O[C@H]1C[C@@]2(O)[C@@H](OC(=O)c3ccccc3)C3[C@@](C)([C@@H](O)C[C@H]4OC[C@@]34OC(C)=O)[C@@H](O)[C@H](OC(C)=O)C(=C1C)C2(C)C (stereo partly drawn) | 2.26% |
| O=c1cc(CSc2nc3ccccc3[nH]2)c2ccccc2[nH]1 | -6.39% |
| Cc1cc(C)n2nc(C(=O)OCCOc3ccc(Br)cc3)nc2n1 | -55.3% |

| SMILES | hERG current change (%, negative = inhibition) at 10uM |
| --- | --- |
| COc1ccccc1-c1cc2nc(C)cc(C)n2n1 | 12.3% |
| O=c1c(-c2ccco2)[n+]([O-])c2ccccc2n1OCc1ccccc1 | 2.1% |
| O=C(O)C(=O)O.OC(COC(c1ccc(F)cc1)c1ccc(F)cc1)CN1CCCC(C(F)(F)F)C1 (stereo not drawn) | 10.8% |
| CC(NC(=O)c1ccc(F)cc1)C(c1cccs1)N1CCN(C)CC1 (stereo not drawn) | 2.37% |
| COc1ccccc1NS(=O)(=O)c1cc(C(=O)NCC(c2ccco2)N(C)C)ccc1C (stereo not drawn) | -7.74% |
| O=C(NC1CCCN(c2ccc(C(F)(F)F)cn2)C1)c1ccnc(Cl)c1 (stereo not drawn) | -55.5% |
| COc1cccc2sc(NNC(=O)c3nc4ccccc4s3)nc12 | 6.33% |
| Cc1cccc(CC2S/C(=N/c3ccccn3)NC2=O)c1 (stereo not drawn) | 6.95% |
| O=C(NCc1cccnc1)c1sc2ccccc2c1Cl | -28.9% |
| O=C(O)c1ccc(C(=O)C(=O)c2ccccc2)cc1 | -4.15% |
| Cc1ccc(S(=O)(=O)Nc2cnc3ccccc3c2)cc1 | 17.3% |
| CCOC(=O)C1=C(C)NC2=C(C(=O)CCC2)C1c1cccnc1 (stereo not drawn) | -13.7% |
| COCCCNC(=O)c1cc(Sc2ccc(F)cc2)nc2ccccc12 | -26.9% |
| Cc1ccccc1C(=O)N1CCN(c2ncnc3c2cnn3-c2ccccc2)CC1 | -9.76% |
| CC(=O)c1cc2c(cc1NC(=O)Cn1nc(-c3ccc(F)cc3)ccc1=O)OCO2 | -37.3% |
| N#CC1(NC(=O)CN2c3cccc4cccc(c34)S2(=O)=O)CCCCC1 | 14.9% |
| COc1ccc(-c2ccc3nnc(SCC(=O)NCC4CCCO4)n3n2)cc1 (stereo not drawn) | -9.98% |
| COc1ccccc1C(=O)NNC(=O)Cc1ccccc1 | 14.4% |
| S=C1N(c2ccccc2)CN(C2CCCCC2)CN1c1ccccc1 | 19.3% |
| O=C(Cc1ccc(F)cc1)NCCc1cnc[nH]1 | 21.8% |
| COc1ccc2[nH]c(=O)c(CN(CCO)S(=O)(=O)c3ccc(C)cc3)cc2c1 | -9.52% |

| SMILES | hERG current change (%, negative = inhibition) at 10uM |
| --- | --- |
| CN1/C(=C\C(=O)c2cccc([N+](=O)[O-])c2)Sc2ccccc21 | 10.8% |
| Cc1cccc(S(=O)(=O)c2c(N)n(Cc3ccco3)c3nc4ccccc4nc23)c1 | 12.3% |
| O=C(CN1CCN(c2ccccc2F)CC1)NC(=O)NCc1ccccc1 | -0.456% |
| CC(=O)C(C)Oc1ccc2c3c(c(=O)oc2c1)CCCC3 (stereo not drawn) | -12.8% |
| O=C1C2C3C=CC(C3=C(c3ccccc3)c3ccccc3)C2C(=O)N1CCO (stereo not drawn) | -39.2% |
| COC(=O)CSc1nnnn1-c1cccc2ccccc12 | -4.4% |
| COc1ccc(CN=C2NN=C(c3ccccc3)CS2)cc1 | 4.33% |
| Cc1nn(CCO)c2ncc(C(=O)c3cc(Cl)ccc3O)cc12 | 15.3% |
| C[C@@H]1[C@H]2[C@@H](O[C@@H]3O[C@H](CO)[C@@H](O)[C@H](O)[C@H]3O)OC=C(C(=O)O)[C@H]2C[C@@H]1O | 16.7% |
| c1nc2nc3c(c(N4CCNCC4)n2n1)CCCC3 | 4.81% |
| CN1C(=O)/C(=C/c2ccccc2OCc2cccc(F)c2)NC1=S | 11% |
| CCn1cc(Cl)c(C(=O)Nc2nc3ccccc3n2CCN2CCCCC2)n1 | -65.5% |
| CCOc1ccc(N(CC(=O)NC2CCCC2)C(=O)CCCC(=O)Nc2ccccn2)cc1 | -10.8% |
| O=C(Nc1ccccc1)c1cnc2n(c1=O)CCS2 | -14.6% |
| N=c1c2c(ncn1CCCO)Oc1c(ccc3ccccc13)C2c1ccccc1 (stereo not drawn) | -70.4% |
| O=C(NCc1ccco1)/C(=C\c1cccnc1)NC(=O)c1ccccc1F | -51.1% |
| CC(C)CC(NC(=O)C(CC(C)C)NC(=O)C(Cc1ccc(OCc2ccccc2)cc1)NC(=O)OC(C)(C)C)C(N)=O (stereo not drawn) (Boc-Tyr(Bn)-Leu-Leu-NH2; configuration not given here) | 13.3% |
| CCn1c(SCc2nc(-c3ccccc3)no2)nnc1-c1ccco1 | -36.3% |
| CCCCOc1c(Br)cc(CNCCCN2CCOCC2)cc1OC.Cl | -35% |
| Cc1csc(NC(=O)C2C3C=CC(C3)C2C(=O)O)n1 (stereo not drawn) | -6.11% |
| COC(=O)C(NC(=O)c1ccco1)(Nc1ccc(Br)cn1)C(F)(F)F (stereo not drawn) | -14.7% |

| SMILES | hERG current change (%, negative = inhibition) at 10uM |
| --- | --- |
| CC(=O)NCc1ccc(C(=O)CCl)s1 | -7.15% |
| CC(=O)Nc1cccc(NC(=O)C2CCCN2C(=O)Nc2ccc(C)cc2)c1 (stereo not drawn) | 16.8% |
| CCOC(=O)Cc1csc(NC(=O)COc2ccc(N(C)S(=O)(=O)c3cccs3)cc2)n1 | -36.9% |
| Cc1c(C(=O)Nc2cccc([N+](=O)[O-])c2)sc2ncn(CC(=O)N3CCOCC3)c(=O)c12 | -7.66% |
| COc1cc(Cl)ccc1OCc1cc(C(=O)NCc2cc(C(C)C)no2)no1 | -18.1% |
| Nc1nn2cc(-c3ccccc3)nc2c2ccccc12 | -45% |
| COc1cc2cnc(-c3ccccc3)c(-c3cc(OC)c(OC)c(OC)c3)c2cc1OC | -0.323% |
| Cc1ccc2[nH]c(CNC(=O)C3CCCCC3)cc2c1 | 14.7% |
| CC(C)C[C@H](NC(=O)c1nc[nH]c1C(=O)NCCCCCNC(=O)OC(C)(C)C)C(=O)OCc1ccccc1 | 9.86% |
| CN(Cc1ccccc1)C(=O)c1c[nH]c2ccc(S(=O)(=O)N3CCOCC3)cc2c1=O | 3.03% |
| CCOC(=O)C1C(=O)NC(N2CCN(Cc3ccccc3)CC2)=NC1c1ccco1 (stereo not drawn) | 6.47% |
| Cc1ccc(C2=NOC(C)(c3nnc(-c4ccc(F)cc4)o3)C2)cc1 (stereo not drawn) | -15% |
| Cc1ccc(NC(=O)NNC(=O)COc2ccc([N+](=O)[O-])cc2)cc1C | 10.7% |
| O=C(O)c1ccc(/C=N/Nc2nc3ccccc3[nH]2)cc1 | 13.9% |
| Cn1cnc2c1c(=O)n(CC(O)CO)c(=O)n2C (stereo not drawn) | 23% |
| FC(F)(F)c1nc(N2CCCC2)ncc1-c1nnnn1-c1ccccc1 | -1.8% |
| CCn1c(CSCc2ccc(F)cc2)nnc1SCC(=O)N1CCN(c2ccccc2)CC1 | -58.6% |
| O=C(NCC1CC1)c1cc([N+](=O)[O-])cc([N+](=O)[O-])c1 | 0.0222% |
| CCOc1ccc(S(=O)(=O)n2ccnc2)c2ccccc12 | 11.4% |
| O=C(Nc1cccc(-n2cccn2)c1)C1CCCN(Cc2ccccc2F)C1 (stereo not drawn) | -30.4% |
| C/C(CC(=O)Nc1ccccn1)=N\NC(=O)c1cccc(C)c1 | -1.25% |
